Reference: publication PMC4336329 (PLoS ONE, 2015)
About 14,000 (4.5%) of roughly 310,000 compounds showed an effect of 50% or more. The effect is printed as a negative number. This is one part of the list.

Target: human ether-à-go-go-related gene (hERG) potassium channel (human, UniProt Q12809)
Test: primary screen, population patch clamp on CHO cells stably expressing hERG
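Also: peak tail current of the secondary pulse compared with the same well before compound.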

Sequence of human ether-à-go-go-related gene (hERG) potassium channel (Q12809 whole entry, looked up): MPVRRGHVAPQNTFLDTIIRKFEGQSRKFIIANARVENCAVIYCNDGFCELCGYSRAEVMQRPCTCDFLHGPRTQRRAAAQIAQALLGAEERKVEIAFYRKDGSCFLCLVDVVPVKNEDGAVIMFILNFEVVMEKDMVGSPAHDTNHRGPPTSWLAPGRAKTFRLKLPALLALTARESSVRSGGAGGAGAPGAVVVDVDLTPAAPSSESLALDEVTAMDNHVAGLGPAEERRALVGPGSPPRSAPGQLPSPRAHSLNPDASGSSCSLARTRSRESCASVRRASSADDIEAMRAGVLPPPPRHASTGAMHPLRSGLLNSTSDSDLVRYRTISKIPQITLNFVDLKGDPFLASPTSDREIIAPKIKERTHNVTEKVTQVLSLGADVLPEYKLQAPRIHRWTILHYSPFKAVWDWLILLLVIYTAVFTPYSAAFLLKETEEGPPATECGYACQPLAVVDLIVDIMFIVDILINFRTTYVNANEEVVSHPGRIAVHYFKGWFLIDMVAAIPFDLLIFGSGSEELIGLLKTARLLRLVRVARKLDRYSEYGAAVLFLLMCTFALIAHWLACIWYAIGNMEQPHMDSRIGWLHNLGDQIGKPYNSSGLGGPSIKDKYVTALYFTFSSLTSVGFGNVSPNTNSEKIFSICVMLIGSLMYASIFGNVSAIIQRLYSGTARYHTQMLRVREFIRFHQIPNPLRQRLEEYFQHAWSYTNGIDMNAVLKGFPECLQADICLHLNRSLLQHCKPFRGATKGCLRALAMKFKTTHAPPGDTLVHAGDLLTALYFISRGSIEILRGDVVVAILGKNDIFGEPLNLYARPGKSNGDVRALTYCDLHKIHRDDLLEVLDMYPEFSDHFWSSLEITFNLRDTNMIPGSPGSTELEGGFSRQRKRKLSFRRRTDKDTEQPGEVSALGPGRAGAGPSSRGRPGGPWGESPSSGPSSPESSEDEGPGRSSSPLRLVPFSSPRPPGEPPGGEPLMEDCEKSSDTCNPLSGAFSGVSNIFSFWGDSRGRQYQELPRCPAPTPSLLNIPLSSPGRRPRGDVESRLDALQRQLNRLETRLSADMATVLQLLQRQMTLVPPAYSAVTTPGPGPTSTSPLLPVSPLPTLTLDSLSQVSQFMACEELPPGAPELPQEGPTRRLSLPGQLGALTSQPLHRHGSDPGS

Row | Structure (SMILES) | hERG current change (%, negative = inhibition) at 10uM [%]
1 | CN(C)C1=NC[C@H](Cc2ccccc2)N1CCCCc1ccccc1 | -71
2 | CCOc1ccc(S(=O)(=O)N2CCC(C(=O)N3CCCC3)CC2)cc1C | 3.91
3 | O=C(COC(=O)c1cccc(C(F)(F)F)c1)NCc1ccccc1 | 19.2
4 | Cn1cc(CN2CCCC(CO)(Cc3ccccc3)C2)cn1 (centres unmarked) | 4.27
5 | O=C(Cn1ncnn1)OCc1ccccc1Cl | 9
6 | Cc1cc(NC(=O)NC(=O)c2ccc(F)cc2F)n[nH]1 | 22.9
7 | O=C(COC(=O)C1CCN(c2ccc(C(F)(F)F)cn2)CC1)c1ccc(Cl)cc1 | -26.6
8 | O=C(NCc1ccco1)c1ccc(COCC(F)(F)F)cc1 | -18.4
9 | CCCc1cc(=O)[nH]c(SCC(=O)NC2CCCc3ccccc32)n1 (centres unmarked) | 0.372
10 | COc1cccc(NC(=O)[C@@H](NC(=O)N2C[C@H]3C[C@@H](C2)c2cccc(=O)n2C3)C(C)C)c1 | 20.6
11 | Cc1ccccc1NC(=O)c1ccccc1NC(=O)c1cccs1 | 11.6
12 | Cc1cc(C)n2cc(CSc3nnnn3-c3ccccc3)nc2n1 | -56.3
13 | O=C(CSc1cn(Cc2cccc(F)c2)c2ccccc12)NCc1ccc(F)cc1 | 9.86
14 | Cc1cc(C)n2nc(SCc3ccc(C#N)cc3)nc2n1 | -11.4
15 | COc1ccccc1N1CCN(C(c2cccs2)c2nnnn2C2CCCC2)CC1 (centres unmarked) | 7.66
16 | CC(=O)c1sc(N/N=C\c2ccccc2O)nc1C | 14.8
17 | O=C(NC(Cc1c[nH]c2ccccc12)C(=O)NCc1ccc(F)cc1)OCc1ccccc1 (centres unmarked) | 4.2
18 | COc1ccc(/C=C2\SC(=O)N(CCC(=O)N3CCCCC3)C2=O)cc1OC | 15.7
19 | O=C(NCc1ccco1)C1(S(=O)(=O)c2ccc(Cl)cc2)CC1 | 1.22
20 | Cc1csc(NC(=O)CCn2c(=O)oc3ccccc32)n1 | -6.75

Row | Structure (SMILES) | hERG current change (%, negative = inhibition) at 10uM [%]
21 | COC(=O)CSc1cc([N+](=O)[O-])ccc1NC(=O)OC | 28.8
22 | Cc1ccc(NC(=S)N(CCN2CCOCC2)Cc2ccccc2F)cc1 | -2.88
23 | CC(C)(O)CNC(=O)C(Cc1ccccc1)N1C(=O)c2ccccc2C1=O (centres unmarked) | 25.7
24 | Cc1cc(C(=O)NC2CCCc3c2cnn3-c2ccc(C(C)(C)C)cc2)n[nH]1 (centres unmarked) | -5.84
25 | COC(=O)C(C)Oc1ccc(Cl)c(CN2OCC(C)(C)C2=O)c1 (centres unmarked) | 5.26
26 | CCCCC(=O)Nc1ncc(Br)s1 | -7.58
27 | Cc1cc([N+](=O)[O-])nn1CC(=O)N/N=C/c1ccccc1F | -5.15
28 | CC(=O)c1ccc(N2C(=NC(=O)CCC3CCCC3)SC3CS(=O)(=O)CC32)cc1 (centres unmarked) | 15.4
29 | CCCNC(=O)N1[C@H]2CC[C@@H]1C(C(=O)OC)=C(c1ccc(-c3ccccc3)c(F)c1)C2 | -3.36
30 | CCN1CC(O)=C(c2nc3ccccc3s2)C1=N | 3.62
31 | O=[N+]([O-])c1cc(S(=O)(=O)N2CCCC2)ccc1NCCCN1CCOCC1 | -22.7
32 | O=C(CCCCn1c(=O)c2ccccc2n(Cc2ccc(F)cc2Cl)c1=O)NCc1ccco1 | -5.07
33 | O=C(CN1CCSCC1)N/N=C/c1cccc(Cl)c1 | -2.93
34 | CC(C)C(NC(=O)CSCc1ccc([N+](=O)[O-])cc1)C(C)C | -40.2
35 | CC1CC(C)CN(S(=O)(=O)c2cc3c4c(c2)CCC(=O)N4CCC3)C1 (centres unmarked) | -5.2
36 | O=C(CCSCc1ccccc1Cl)N1CCN(c2cccc(Cl)c2)CC1 | 4.72
37 | CCCOC1CCCN(C(=O)c2cc(COc3ccc(-n4cncn4)cc3)on2)C1 (centres unmarked) | -79
38 | Cc1ccc(-c2n[nH]c(Cc3ccccc3)n2)cc1 | -1.91
39 | CCOc1ccc(CN2CCN(Cc3cccn3-c3nccs3)CC2CCO)cc1 (centres unmarked) | -76.1
40 | C=CCN(CC=C)CCOc1ccccc1[N+](=O)[O-].O=C(O)C(=O)O | -14.4

Row | Structure (SMILES) | hERG current change (%, negative = inhibition) at 10uM [%]
41 | CCCNC(=O)N1CCC(C(=O)c2ccc(Cl)cc2)CC1 | -23.6
42 | COc1ccc(/C=C2/SC(=O)N(CCNC(=O)C3COc4ccccc4O3)C2=O)cc1 (centres unmarked) | -25.7
43 | CS(=O)(=O)Nc1ccc(C2=NN(C(=O)c3ccco3)C(c3ccccc3)C2)cc1 (centres unmarked) | -77.6
44 | CCOC(=O)c1c(C)[nH]c(C(=O)COC(=O)CN2C(=O)C3CCCCC3C2=O)c1C (centres unmarked) | -16.8
45 | O=S1(=O)CCOC[C@H](c2ccccc2)N1Cc1cccc(F)c1 | 3.71
46 | Cc1cc2occ(CC(=O)NCc3cccs3)c2cc1C(C)C | -23.3
47 | Cc1ccc2nc(C)c(C(=O)NN=C3CCCCCC3)n2c1 | 15.4
48 | Cc1cccc(C(=O)NC(C)C2CC3CCC2C3)c1 (centres unmarked) | -8.73
49 | COC(=O)c1sccc1NC(=O)Nc1cc(C)ccc1C | 4.5
50 | O=C(COc1cccc2c1CCNC2=O)Nc1cccc(F)c1 | 9.76
51 | COc1ccc(O)c(C=Nc2cc(NC(C)=O)c(Cl)cc2Cl)c1 | 2.95
52 | CCN(CC)c1cc(Oc2ccccc2)ncn1 | -9.54
53 | C=CCN(C(=O)c1ccccc1)C1CCS(=O)(=O)C1 (centres unmarked) | 11.5
54 | COCCC(=O)N1CCC(Oc2ccc(C(=O)NCCc3cnn(C)c3)cc2)CC1 | 8.9
55 | CCCOc1ccc(C(C)=O)cc1CN1CCOCC1.Cl | 2.99
56 | Cc1cc(SCC#N)nc2ccccc12 | 11.8
57 | Cc1cc2c(OCC(O)CNC3CCCCC3)cccc2[nH]1 (centres unmarked) | 8.67
58 | COc1ccc(C(=O)NCCCNC(=O)c2cccnc2)cc1OC | 1.59
59 | CC(C)c1ccc(CC(C)C2C3=C(CCCC3=O)OC3=C2C(=O)CCC3)cc1 (centres unmarked) | -7.75
